In patent US20220048951A1:

T1: CD20 on CD20 positive lymphoma cells (Daudi, Raji) (human) (UniProt P11836)
T1 sequence: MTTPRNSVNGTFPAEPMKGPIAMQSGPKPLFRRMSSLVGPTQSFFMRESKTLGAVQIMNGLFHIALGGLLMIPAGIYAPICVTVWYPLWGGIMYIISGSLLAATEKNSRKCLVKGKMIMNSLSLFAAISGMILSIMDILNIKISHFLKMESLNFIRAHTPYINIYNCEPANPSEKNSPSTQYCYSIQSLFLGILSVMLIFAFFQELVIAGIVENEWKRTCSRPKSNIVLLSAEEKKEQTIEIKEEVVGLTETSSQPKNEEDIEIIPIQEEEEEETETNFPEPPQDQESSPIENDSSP


Molecular target: T1, CD20 on CD20 positive lymphoma cells (Daudi, Raji) (human)
Assay: cell-based or functional assay

Row | Binder | IC50 [nM], cell viability 24 h, Daudi (CD20 positive) [nM] | IC50 [nM], membrane integrity 4 h, Daudi (CD20 positive) [nM]
1 | Phor18-VL-scFv-Fc (E. coli, single chain) (Fc fusion) KFAKFAKKFAKFAKKFAKGSDIQMTQSPSSLSASVGDRVTITCRASSSVSYIHWYQQKPGKAPKLLIYATSNLASGVPSRFSGSRSGTDFTLTISSLQPEDFATYYCQQWTSNPPTFGQGTKVEIKGGGGSEVQLVESGGGLVQPGGSLRLSCAASGYTFTSYNMHWVRQAPGKGLEWVAAIYPGNGDTSYNQKFKGRFTISADTSKNTAYLQMNSLRAEDTAVYYCSRSTYYGGDWYFDVWGQGTLVTVSSV[human IgG1 Fc not listed] | 21.8 | 277
2 | scFv-Fc-CH3-Phor18 (E. coli, single chain) (Fc fusion) DIQMTQSPSSLSASVGDRVTITCRASSSVSYIHWYQQKPGKAPKLLIYATSNLASGVPSRFSGSRSGTDFTLTISSLQPEDFATYYCQQWTSNPPTFGQGTKVEIKGGGGSEVQLVESGGGLVQPGGSLRLSCAASGYTFTSYNMHWVRQAPGKGLEWVAAIYPGNGDTSYNQKFKGRFTISADTSKNTAYLQMNSLRAEDTAVYYCSRSTYYGGDWYFDVWGQGTLVTVSSV[human IgG1 Fc not listed]GSKFAKFAKKFAKFAKKFAK | 423 | 2560
